Whole data set: some 2,300 sequences, median “median log2 fold change of GCK-ALFA target abundance (FLAG IP / Myc IP barcode read proportion)” near 0.095, cut for the lowest 2% near -0.47. The list shows a part of the results.
B1: LC3A_3_1397 (protein)
chain: MEEIRKEILKELKEMGASEEVLKAAEEVLDALAARGYEKAMETLLEEVKKLKNASDEILLAFFEDVLAFVKTNDASEEEAVEFIKEEARIALNEEEIEEL
B2: LC3A_free_39_2261 (protein)
chain: MEKEREEAIKEAKELAEKTSPEVKKAVTELVELLKDNVELLKKLTELLKKAIEKGPEVVAVFGEFAKEAVERIKAGEPKEKAVKELLKLAENAIEIEEID
B3: LC3A_28_813 (protein)
chain: SEKEKTIEEIKKQAEEAKESKDMKLINVKISSTFTVEEAEEIMEVVEEEVKELSKLGKVAVVVDADEPISQEVLDVIAERGEEIEEKYPNVSVIIALPEE
B4: LC3A_74_2073 (protein)
chain: KLSPEEVEEIVDTIGTLKGALELLKEKGLVTEEEVKKYEEVIEKAKELLKKNGALTEAVEGGIDLEAELVKLKLENKPEEAKKLAEESYKKLEELLKKWE
B5: LC3A_28_732 (protein)
chain: SELDESIEKALAEAKEAAKKGEETVITIKVPGTATEEDIEKVIKAMEEIAEITKDLKSTAIIIDLDGKVPQEYIDKLADKADEIEKKYPNVTVIIALDEE
B6: LC3A_3_1726 (protein)
chain: MEERLAAARERLEALGYSPEVLAAALATVEALLERGLEEQVEKLLAALEKIKDADQEVILAGLQDILALVETSTLSKEELAKEVEEEINTLLHDGEIEEL
B7: LC3A_13_345 (protein)
chain: TVTIEAETAEELLKKGTAALEAHPGEKIKITVTIRDEEEAEAVAKALKELIDLAIEKGNTLDITLKGKRDLVLFAELELGAYIAEVLGKADVTVTGVETP
B8: LC3A_3_1561 (protein)
chain: AEELLKETLEELRKAGASEEVLEAVRKAAEALIEKGYEEALKTFAEELRKLLHLPDEYLLEFAEEVLEMVETEDLNEEEVIEEIKRIARTVRNDAEIIEL
B9: LC3A_102_163 (protein)
chain: ELEKLKEELLKKALERLEKLLAKDKSVSEEEKKEILETAREALLAAFENTVTEEQHGYTDIVAEDKLLDNLEYLKEKSEEYAKLVEESIEELRKAVKEKL
B10: LC3A_128_223 (protein)
chain: NELVKEALEELERALEDLKKIATTPELKKLVKEAEKKLKEAKKLVKEGAPLEEIKKALEEALKIAKEAIKLAEEKGVPNTVALNAAEIDLAEAEELLQKI
B11: LC3A_13_335 (protein)
chain: TIKIEVETPEELREKVLKAIEENPGETIEITVTVKTEEEVDKFAEALEEIIDKAIEKGNSLKITIKGKRDNVLELSLLVGSYIAEHIDEADVTLEEEILP
B12: LC3A_3_1626 (protein)
chain: GEERLEETLAELRAAGHSEETLEAFRRAGEALAERGYEEALETLIEEVRELLDLPDDILLWFLEEVLRAVEEEDLDEEEVIERIREEARIARNEAEIIEL
B13: LC3A_28_1314 (protein)
chain: MSIKEQFEKAIKEVKEAAEKGEPVVVTIDISAEDAEKHLEEILKLLEELAEEASKAPGATIIIDLDEKVDPENQQKIIDKGEELEKKYPNVTIIFAIEDN
B14: LC3A_102_146 (protein)
chain: SQLEELEKLREEALARADEIAAAVAAEDPARAAELRALLHEGIDALFENARTQIEHGYTDIVAEDRFLEALDRLRALGDEAGVALLEETEKRAKELVEKA
B15: LC3A_free_0_2119 (protein)
chain: KKTVVEVVVILDESVDEETAEKIHKELTKKAEELAKKYGGKLKSSLSKSDGRYIITIEITFDTEDIDLALEVERELVKIAEEILKKAGVEATIYSSVYLE
B16: LC3A_141_381 (protein)
chain: MEKKFEARFTEEQADELFEFFEEVEKEAKKMIKESGGKPVKVEVKITATNPETGEVVEEEETDIVTEENVDLVMDGYEIKALSMLLRVGGEVEVEVKLKV
B17: LC3A_132_328 (protein)
chain: SDATYAKLKAELTAKLTEAKANVDDLEKVEALNKEARALLAQAEKEVSPAQVAELYRLAADLWDEVADAAEAAGKEDVELLASGAAVEAEARAIRAEEKI
B18: LC3A_free_46_2417 (protein)
chain: WKGTVEADLYGATEEQVEEIKKEVEEKAKELSEKYGVEVKVEIEVEKNEDGTYFVKIKVTIEGEDKETVQKAADEMVDKLEEIADKKGVAMIISVDIEEA
B19: LC3A_3_1367 (protein)
chain: MEERIAATLARLRAAGRSEETLEAVRRAAEALAEKGYEEALETFLALMLELAHLPDELLLWFAEEVLAAVEAGELSEEELIEFIREEARVARSAAEIEEL
B20: LC3A_free_46_2376 (protein)
chain: YKIEIDIYFSAMSKEKAEEMAEEIKKAAEEISKKTGVKIEVEVKIITDENGETWLEVKVTIEGEDKEKALKAATELIDKFDEIAEKHGVSLIISVEEIDE
B21: LC3A_3_1604 (protein)
chain: GEALVAALLARLRAAGLAEPVLAAAERALRALAARGYAEAAETLAAELLAAADLPEELLVATLEELLEIVETEDLTEEELIAEIEELFRVARLEAEIEEL
B22: LC3A_132_259 (protein)
chain: SEELFEKALKELKELLDEIVKALQEGKDPMPLVVKLDETAEKYAEKLSLEDTEKLAEEAKKYAKELFEKNLDPNNEEARRVLDIVEMLLEGVLIEKELRD
B23: LC3A_28_909 (protein)
chain: SAVDAAVAAAIAEARAAAARGEPAVVTLTIDHEDVAEAEAAARAALTRLKEVALELPGLTIIVDVPEHIADAVTAVADEVQAELDKANPSNHIIVAVEEP
B24: LC3A_free_39_2252 (protein)
chain: SAAEEAAAKERLEAIKASVSPEVAAEIDELVAAAKAIGLPLAFVAEQVERLVNSGLSEEDLIATLREMVAALKAHADDPEAARAALEEITREAVNLIPLD
B25: LC3A_3_1686 (protein)
chain: MDELVKEVLEEAKKNGYSEETLKALEKLLKKLKERGYENAIKEILEEIKELKNAPSELWKDMFEDLLHKVETEDLSEEEIVEEIKKEARVIKNELEIEEL
B26: LC3A_free_46_2370 (protein)
chain: MVIYAYAYKEGWTEEEAKELLEEIKEGIKEIAKELGVEVKIKGKVVKNKDGSYLVEVEIEIKAPTKELAEEAAKKIIEKLDEIAEKNGAAVIISLEETEP
B27: LC3A_28_644 (protein)
chain: SALDEQLEKALKEAKEAAKAGKPAVITLTLPGDANEEDVERILKAMEEIAEILKDVPGSAIIVDIERGVDQEHVDRIIDKAEELEKKYPNVTVIIALDEE
B28: LC3A_127_168 (protein)
chain: ELEELLKKAIKEAEEASDLLDSGNFDYEELKKKLEELIKLLEEALKLDPRVQEALEDAKQALKLLEEMKKASPEEAEALREHASLLLEGIIISLESILLK
B29: LC3A_28_1188 (protein)
chain: SALEKSLEEAIKEAKEKAAKGEPAVITIKVPGDADEEDIEKVIETLEEIAEILKDIPGSAIIIDLDGGVKQEHQDKLMKKAEEIEKKYPNVTVIIALEER

Target: MAP1LC3A, Q9H492
Assay: median log2 fold change of GCK-ALFA target abundance (FLAG IP / Myc IP barcode read proportion) (log2 ratio); each designed protein is fused to an ALFA-tag nanobody in HEK293 cells to bring the named protein to FLAG-tagged glucokinase (GCK); Myc marks an untargeted standard; higher = target protein stabilised (more abundant)
Settings: target protein: 3xFLAG-MCP-GCK-ALFA reporter; HEK293 landing pad (RPLP)
Procedure, shortened: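 Sequencing of reverse-transcribed, amplified circular RNA barcodes from anti-FLAG and anti-Myc immunoprecipitates provided the readout for an ALFA-nanobody-fused binder library recombined into HEK293 landing-pad cells. Those cells were induced with 2 μg mL^−1 doxycycline, transfected with a plasmid expressing a FLAG-tagged target and a Myc-tagged standard, and lysed after 48 h. Target abundance is the per-binder median log2 ratio of FLAG to Myc barcode read proportions. Only barcodes at a proportion of ≥10^−7 in both replicates and binders with ≥3 barcodes per replicate were kept, with a 10^−6 pseudocount added before the two replicates were pooled.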

Binder	median log2 fold change
B1	0.243
B2	0.408
B3	-0.181
B4	0.328
B5	-0.0226
B6	0.271
B7	0.185
B8	0.04
B9	0.0145
B10	0.17
B11	-0.0985
B12	0.145
B13	0.00609
B14	0.412
B15	0.0235
B16	0.0288
B17	0.182
B18	0.0346
B19	0.0702
B20	-0.231
B21	-0.239
B22	0.0453
B23	-0.0828
B24	0.403
B25	0.177
B26	-0.246
B27	-0.366
B28	0.25
B29	0.0659

From the supplement of paper PMC12632987
